Experimental data taken from PMC4336329 (PLoS ONE, 2015).
About 14,000 (4.5%) of roughly 310,000 compounds showed an effect of 50% or more. Effects have a minus sign here. This is one part of the list.
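Further: peak tail current of the secondary pulse compared with the same well before compound.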

Each compound was assayed against human ether-à-go-go-related gene (hERG) potassium channel (human, UniProt Q12809) (assay: primary screen, population patch clamp on CHO cells stably expressing hERG).
Sequence of human ether-à-go-go-related gene (hERG) potassium channel (Q12809 whole entry, looked up): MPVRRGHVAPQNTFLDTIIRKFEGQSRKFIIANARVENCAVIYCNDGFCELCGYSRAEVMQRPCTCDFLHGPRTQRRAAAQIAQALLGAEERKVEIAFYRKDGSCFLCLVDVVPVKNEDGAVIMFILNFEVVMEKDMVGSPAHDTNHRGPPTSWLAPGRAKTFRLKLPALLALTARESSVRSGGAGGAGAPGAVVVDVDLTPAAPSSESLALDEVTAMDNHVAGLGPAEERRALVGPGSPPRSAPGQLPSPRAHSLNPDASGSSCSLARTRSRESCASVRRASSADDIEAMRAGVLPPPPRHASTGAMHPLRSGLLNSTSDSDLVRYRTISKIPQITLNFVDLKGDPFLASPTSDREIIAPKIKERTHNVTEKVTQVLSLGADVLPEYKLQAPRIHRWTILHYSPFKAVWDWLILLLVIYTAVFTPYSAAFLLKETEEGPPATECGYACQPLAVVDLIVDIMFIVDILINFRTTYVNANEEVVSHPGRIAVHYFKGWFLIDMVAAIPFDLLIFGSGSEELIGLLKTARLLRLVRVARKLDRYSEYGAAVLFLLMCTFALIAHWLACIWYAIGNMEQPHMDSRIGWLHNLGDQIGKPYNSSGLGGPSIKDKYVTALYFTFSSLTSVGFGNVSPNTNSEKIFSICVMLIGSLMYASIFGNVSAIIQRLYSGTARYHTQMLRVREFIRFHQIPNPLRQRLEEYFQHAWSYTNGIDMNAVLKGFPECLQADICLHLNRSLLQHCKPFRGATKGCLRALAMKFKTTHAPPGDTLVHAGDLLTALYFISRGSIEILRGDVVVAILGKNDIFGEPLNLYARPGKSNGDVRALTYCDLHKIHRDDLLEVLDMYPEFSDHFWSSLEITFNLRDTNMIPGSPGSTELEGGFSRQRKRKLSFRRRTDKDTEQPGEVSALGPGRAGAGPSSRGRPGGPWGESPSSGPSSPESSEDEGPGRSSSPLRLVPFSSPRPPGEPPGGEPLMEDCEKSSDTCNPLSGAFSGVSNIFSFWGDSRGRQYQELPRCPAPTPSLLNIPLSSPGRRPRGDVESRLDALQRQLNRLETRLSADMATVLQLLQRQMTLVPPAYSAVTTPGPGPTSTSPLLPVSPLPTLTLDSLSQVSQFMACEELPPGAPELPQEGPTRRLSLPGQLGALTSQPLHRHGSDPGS
For `CCOC(=O)C1(Cc2cccc(Cl)c2)CCCN(C(=O)c2ccco2)C1` (stereo not shown), the “hERG current change (%, negative = inhibition) at 10uM” value was -4.51%. With `CCOC(=O)C(=O)N/N=C(/c1ccccc1)c1ccc(OC)cc1` the “hERG current change (%, negative = inhibition) at 10uM” value was 5.41%. In the case of `O=C1Nc2ncccc2OC1CCCl` (stereo not shown), the “hERG current change (%, negative = inhibition) at 10uM” value is reported as 6.83%. For `COc1cc(SC)ccc1C(=O)NCC1CCCCC1`, the “hERG current change (%, negative = inhibition) at 10uM” value was -8.33%. In the case of `Cc1ccccc1N=Nc1c(N)n[nH]c1N`, the “hERG current change (%, negative = inhibition) at 10uM” value is reported as 10.5%. For `COc1ccc(OC)c(NC(=O)COC(=O)c2ccc(OC)c(S(=O)(=O)N3CCOCC3)c2)c1`, the “hERG current change (%, negative = inhibition) at 10uM” value was -2.13%. `O=C(CSc1ccc2ccccc2n1)N/N=C/c1ccc(O)cc1` was tested, and the “hERG current change (%, negative = inhibition) at 10uM” value was -3.77%. With `Cc1cccc(CNC(=O)CCc2nnc(C3CCCCC3)o2)c1` the “hERG current change (%, negative = inhibition) at 10uM” value was 6.86%. In the case of `Cc1ccc(C(=O)Nc2ncc(Cc3ccccc3)s2)o1`, the “hERG current change (%, negative = inhibition) at 10uM” value is reported as -3.61%. In the case of `O=C(CSc1oc(-c2ccc(F)cc2)nc1S(=O)(=O)c1ccc(F)cc1)NCC1CCCO1` (stereo not shown), the “hERG current change (%, negative = inhibition) at 10uM” value is reported as 5.91%. In the case of `Cc1cccc(Nc2nc(N)nc(CSc3nccc(C)n3)n2)c1`, the “hERG current change (%, negative = inhibition) at 10uM” value is reported as 7.29%. In the case of `Cc1sc2nc[nH]c(=O)c2c1-c1ccc(F)cc1`, the “hERG current change (%, negative = inhibition) at 10uM” value is reported as 19.8%. `O=C(CCCC(=O)N(CC(=O)NC1CCCC1)c1cccc(F)c1)Nc1ccccn1` was tested, and the “hERG current change (%, negative = inhibition) at 10uM” value was 4.77%. For `Cc1nc(CNS(=O)(=O)c2cc(F)ccc2F)cs1`, the “hERG current change (%, negative = inhibition) at 10uM” value was 36.5%. `COc1ccc(CNC(=O)c2cc(COc3c(F)cccc3F)on2)cc1OC` was tested, and the “hERG current change (%, negative = inhibition) at 10uM” value was -15.3%. With `CSc1nnc(-c2cc3c(s2)-c2ccccc2CC3)o1` the “hERG current change (%, negative = inhibition) at 10uM” value was 9.92%. With `CO.COC(=O)c1cccc(C(=O)Nc2cnc3ccccc3c2)n1` the “hERG current change (%, negative = inhibition) at 10uM” value was -14.4%. With `CCC(=O)N1CCN(c2ccccc2NC(=O)Cc2ccccc2)CC1` the “hERG current change (%, negative = inhibition) at 10uM” value was -29.1%. With `CC1CCCCN1CCNC(=O)C1CCCN(S(=O)(=O)c2cccc3nsnc23)C1` (stereo not shown) the “hERG current change (%, negative = inhibition) at 10uM” value was -18.9%. With `CC1Cc2cc(/C(O)=C3/C(=O)C(=O)N(CCCn4ccnc4)C3c3ccc(Br)cc3)ccc2O1` (stereo not shown) the “hERG current change (%, negative = inhibition) at 10uM” value was 6.07%. In the case of `COc1ccc(CNC(=O)CC(NC(N)=O)c2ccccc2Cl)cc1OC` (stereo not shown), the “hERG current change (%, negative = inhibition) at 10uM” value is reported as 24.4%. In the case of `O=C(CSc1ccc2c(c1)OCCO2)Nc1ccc(Br)cc1`, the “hERG current change (%, negative = inhibition) at 10uM” value is reported as -4.08%. For `Cc1ccc(Nc2nc(N)nc(CSc3nnnn3-c3ccccc3)n2)cc1`, the “hERG current change (%, negative = inhibition) at 10uM” value was 4.49%. For `Cc1cccc(NC(=O)[C@@H](CC(C)C)NC(=O)[C@@H]2Cc3ccccc3CN2)c1`, the “hERG current change (%, negative = inhibition) at 10uM” value was -40.7%. `COc1ccc(S(=O)(=O)N2CCCCCC2)cc1NC(=O)c1c2c(nc3ccccc13)CCN(Cc1ccccc1)C2` was tested, and the “hERG current change (%, negative = inhibition) at 10uM” value was -21.8%. For `O=C(O)CC(NS(=O)(=O)Cc1ccccc1)c1cccc([N+](=O)[O-])c1` (stereo not shown), the “hERG current change (%, negative = inhibition) at 10uM” value was 16.3%. For `Cc1cc(C)n(-c2ccc(C(=O)O)cc2)n1`, the “hERG current change (%, negative = inhibition) at 10uM” value was 20.9%. For `Cc1ccccc1NC1=NC(=S)N(c2ccccc2)C12CCOC(C)(C)C2` (stereo not shown), the “hERG current change (%, negative = inhibition) at 10uM” value was -1.44%. `COCCCn1cc(C(=O)c2cc(Br)ccc2O)cc(C#N)c1=O` was tested, and the “hERG current change (%, negative = inhibition) at 10uM” value was -8.65%. With `CCOc1cc(/C=N/Nc2nc(=O)[nH]nc2C)ccc1O` the “hERG current change (%, negative = inhibition) at 10uM” value was 19.4%. For `O=C(Nc1ccc2c(c1)OCCO2)c1ccc(Cl)c(S(=O)(=O)N2CCCCC2)c1`, the “hERG current change (%, negative = inhibition) at 10uM” value was -17.4%. In the case of `CCC(C)(C(=O)NC1CCCCC1)N(Cc1ccco1)C(=O)c1cnccn1` (stereo not shown), the “hERG current change (%, negative = inhibition) at 10uM” value is reported as -11.3%. In the case of `CCOC(=O)c1sc2ncnc(OC)c2c1C`, the “hERG current change (%, negative = inhibition) at 10uM” value is reported as 13.3%. `Cc1ccc(NC(=O)c2ccco2)c(NC(=O)c2cccs2)c1` was tested, and the “hERG current change (%, negative = inhibition) at 10uM” value was 1.05%. For `O=C(NCC1c2ccccc2CCN1C(=O)CN1CCOCC1)C1CCCCC1` (stereo not shown), the “hERG current change (%, negative = inhibition) at 10uM” value was -1.72%. In the case of `COCCNC(=S)N/N=C/c1ccccc1C(=O)O`, the “hERG current change (%, negative = inhibition) at 10uM” value is reported as 5.96%. For `COc1cccc2c1c(NC(=O)c1cc(C)on1)nn2C`, the “hERG current change (%, negative = inhibition) at 10uM” value was 6.59%. For `NC(=O)N/N=C/c1cccc(OCc2ccc(F)cc2)c1`, the “hERG current change (%, negative = inhibition) at 10uM” value was 9.99%. For `Cc1occc1C(=O)N(C)Cc1nc(-c2ccccc2)no1`, the “hERG current change (%, negative = inhibition) at 10uM” value was -6.62%. With `C1COCCO1.CCOc1ccc(N2C(=O)CC(N(CCc3ccc(OC)c(OC)c3)C(=S)Nc3ccccc3)C2=O)cc1` (stereo not shown) the “hERG current change (%, negative = inhibition) at 10uM” value was -4.02%. For `C=CCOc1cccc(C(=O)N2CCCC(CCC(=O)NCc3ccccc3F)C2)c1` (stereo not shown), the “hERG current change (%, negative = inhibition) at 10uM” value was -12.6%. In the case of `CCN1CCN(C(=O)c2cc3ccc(OC)cc3[nH]2)CC1`, the “hERG current change (%, negative = inhibition) at 10uM” value is reported as 0.841%. In the case of `O=S(=O)(Nc1ccc(-c2cnco2)cc1)c1ccccc1`, the “hERG current change (%, negative = inhibition) at 10uM” value is reported as 7.62%.
